# The supplement of paper PMC8728848
# This is one part of the list.
# Columns and labels:
# Assay in all cases: glycan array binding signal (z-score within array); higher = stronger binding
# Details in all cases: glycan notation: IUPAC condensed, linker removed
# [1] = target: Neu5Ac(a2-6)Gal(b1-4)GlcNAc(b1-3)Gal(b1-3)GlcNAc
# Procedure, shortened: (§1)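 From the Consortium for Functional Glycomics database, 3228 arrays were curated, keeping only those whose protein sequence was available. Binding is given as a within-array Z-score averaged across arrays sharing a protein sequence and across linkers. Negative Z-scores can be read as non-binding.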
# [2] = target: Neu5Ac(a2-6)Gal(b1-4)GlcNAc(b1-3)Gal(b1-4)GlcNAc
# Procedure, shortened: as §1
# [3] = target: Neu5Ac(a2-6)Gal(b1-4)GlcNAc(b1-3)Gal(b1-4)GlcNAc(b1-2)Man(a1-3)[Neu5Ac(a2-6)Gal(b1-4)GlcNAc(b1-3)Gal(b1-4)GlcNAc(b1-2)Man(a1-6)]GalNAc
# Procedure, shortened: as §1
# [4] = target: Neu5Ac(a2-6)Gal(b1-4)GlcNAc(b1-3)Gal(b1-4)GlcNAc(b1-3)Gal(b1-4)GlcNAc
# Procedure, shortened: as §1
# [5] = target: Neu5Ac(a2-6)Gal(b1-4)GlcNAc(b1-3)Gal(b1-4)GlcNAc(b1-3)Gal(b1-4)GlcNAc(b1-2)Man(a1-3)[Neu5Ac(a2-6)Gal(b1-4)GlcNAc(b1-3)Gal(b1-4)GlcNAc(b1-3)Gal(b1-4)GlcNAc(b1-2)Man(a1-6)]GalNAc
# Procedure, shortened: as §1
# [6] = target: Neu5Ac(a2-6)Gal(b1-4)GlcNAc(b1-3)Gal(b1-4)GlcNAc(b1-3)GalNAc
# Procedure, shortened: as §1
# [7] = target: Neu5Ac(a2-6)Gal(b1-4)GlcNAc(b1-3)Gal(b1-4)GlcNAc(b1-3)[Neu5Ac(a2-6)Gal(b1-4)GlcNAc(b1-3)Gal(b1-4)GlcNAc(b1-6)]GalNAc
# Procedure, shortened: as §1
# [8] = target: Neu5Ac(a2-6)Gal(b1-4)GlcNAc(b1-3)Gal(b1-4)GlcNAc(b1-6)[Gal(b1-3)]GalNAc
# Procedure, shortened: as §1
# [9] = target: Neu5Ac(a2-6)Gal(b1-4)GlcNAc(b1-3)Gal(b1-4)[Fuc(a1-3)]GlcNAc(b1-3)Gal(b1-4)[Fuc(a1-3)]GlcNAc
# Procedure, shortened: as §1
# [10] = target: Neu5Ac(a2-6)Gal(b1-4)GlcNAc(b1-3)GalNAc
# Procedure, shortened: as §1
# [11] = target: Neu5Ac(a2-6)Gal(b1-4)GlcNAc(b1-3)[Neu5Ac(a2-6)Gal(b1-4)GlcNAc(b1-6)]GalNAc
# Procedure, shortened: as §1
# [12] = target: Neu5Ac(a2-6)Gal(b1-4)GlcNAc(b1-6)GalNAc
# Procedure, shortened: as §1
# [13] = target: Neu5Ac(a2-6)Gal(b1-4)GlcNAc(b1-6)[Gal(b1-3)GlcNAc(b1-3)]Gal(b1-4)Glc
# Procedure, shortened: as §1
# [14] = target: Neu5Ac(a2-6)Gal(b1-4)GlcNAc(b1-6)[Gal(b1-3)]GalNAc
# Procedure, shortened: as §1
# [15] = target: Neu5Ac(a2-6)Gal(b1-4)GlcNAc6S
# Procedure, shortened: as §1
# Neu5Ac(a2-6)GalNAc = target: Neu5Ac(a2-6)GalNAc
# Procedure, shortened: as §1
# [16] = target: Neu5Ac(a2-6)GalNAc(b1-4)GlcNAc
# Procedure, shortened: as §1
# [17] = target: Neu5Ac(a2-6)GalNAc(b1-4)GlcNAc6S
# Procedure, shortened: as §1
# [18] = target: Neu5Ac(a2-6)GlcNAc(b1-4)GlcNAc
# Procedure, shortened: as §1
# [19] = target: Neu5Ac(a2-6)GlcNAc(b1-4)GlcNAc(b1-4)GlcNAc
# Procedure, shortened: as §1
# Neu5Ac(a2-8)Neu5Ac = target: Neu5Ac(a2-8)Neu5Ac
# Procedure, shortened: as §1
# [20] = target: Neu5Ac(a2-8)Neu5Ac(a2-3)Gal(b1-3)GalNAc(b1-4)[Neu5Ac(a2-3)]Gal(b1-4)Glc
# Procedure, shortened: as §1
# [21] = target: Neu5Ac(a2-8)Neu5Ac(a2-3)Gal(b1-3)GalNAc(b1-4)[Neu5Ac(a2-8)Neu5Ac(a2-3)]Gal(b1-4)Glc
# Procedure, shortened: as §1
# [22] = target: Neu5Ac(a2-8)Neu5Ac(a2-3)Gal(b1-4)Glc
# Procedure, shortened: as §1
# [23] = target: Neu5Ac(a2-8)Neu5Ac(a2-3)Gal(b1-4)GlcNAc
# Procedure, shortened: as §1
# [24] = target: Neu5Ac(a2-8)Neu5Ac(a2-3)[Gal(b1-3)GalNAc(b1-4)]Gal(b1-4)Glc
# Procedure, shortened: as §1
# [25] = target: Neu5Ac(a2-8)Neu5Ac(a2-3)[GalNAc(b1-4)]Gal(b1-4)Glc
# Procedure, shortened: as §1
# [26] = target: Neu5Ac(a2-8)Neu5Ac(a2-8)Neu5Ac
# Procedure, shortened: as §1
# [27] = target: Neu5Ac(a2-8)Neu5Ac(a2-8)Neu5Ac(a2-3)Gal(b1-4)Glc
# Procedure, shortened: as §1
# [28] = target: Neu5Ac(a2-8)Neu5Ac(a2-8)Neu5Ac(a2-3)[Gal(b1-3)GalNAc(b1-4)]Gal(b1-4)Glc
# Procedure, shortened: as §1
# [29] = target: Neu5Ac(a2-8)Neu5Ac(a2-8)Neu5Ac(a2-3)[GalNAc(b1-4)]Gal(b1-4)Glc
# Procedure, shortened: as §1
# [30] = target: Neu5Ac(a2-8)Neu5Ac(a2-8)Neu5Ac(a2-8)Neu5Ac(a2-3)[GalNAc(b1-4)]Gal(b1-4)Glc
# Procedure, shortened: as §1
# [31] = target: Neu5Ac(a2-8)Neu5Gc(a2-3)Gal(b1-4)GlcNAc
# Procedure, shortened: as §1
# [32] = target: Neu5Ac(b2-6)Gal(b1-4)GlcNAc
# Procedure, shortened: as §1
# Neu5Ac(b2-6)GalNAc = target: Neu5Ac(b2-6)GalNAc
# Procedure, shortened: as §1
# [33] = target: Neu5Ac9Ac(a2-3)Gal(b1-3)GlcNAc
# Procedure, shortened: as §1
# [34] = target: Neu5Ac9Ac(a2-3)Gal(b1-4)GlcNAc
# Procedure, shortened: as §1
# [35] = target: Neu5Ac9Ac(a2-6)Gal(b1-4)GlcNAc
# Procedure, shortened: as §1
# [36] = target: Neu5Gc(a2-3)Gal(b1-3)GlcNAc
# Procedure, shortened: as §1
# [37] = target: Neu5Gc(a2-3)Gal(b1-3)[Fuc(a1-4)]GlcNAc
# Procedure, shortened: as §1
# Neu5Gc(a2-3)Gal(b1-4)Glc = target: Neu5Gc(a2-3)Gal(b1-4)Glc
# Procedure, shortened: as §1
# [38] = target: Neu5Gc(a2-3)Gal(b1-4)GlcNAc
# Procedure, shortened: as §1
# [39] = target: Neu5Gc(a2-3)Gal(b1-4)GlcNAc(b1-3)Gal(b1-4)GlcNAc(b1-2)Man(a1-3)[Neu5Gc(a2-3)Gal(b1-4)GlcNAc(b1-3)Gal(b1-4)GlcNAc(b1-2)Man(a1-6)]Man(b1-4)GlcNAc(b1-4)GlcNAc
# Procedure, shortened: as §1
# [40] = target: Neu5Gc(a2-3)Gal(b1-4)[Fuc(a1-3)]GlcNAc
# Procedure, shortened: as §1
# [41] = target: Neu5Gc(a2-6)Gal(b1-4)GlcNAc
# Procedure, shortened: as §1
# Neu5Gc(a2-6)GalNAc = target: Neu5Gc(a2-6)GalNAc
# Procedure, shortened: as §1
# [42] = target: Neu5Gc(a2-8)Neu5Ac(a2-3)Gal(b1-4)GlcNAc
# Procedure, shortened: as §1
# [43] = target: Neu5Gc(a2-8)Neu5Gc(a2-3)Gal(b1-4)GlcNAc
# Procedure, shortened: as §1
# [44] = target: Neu5Gc(a2-8)Neu5Gc(a2-3)Gal(b1-4)GlcNAc(b1-3)Gal(b1-4)GlcNAc
# Procedure, shortened: as §1
# [45] = target: Neu5Gc(a2-8)Neu5Gc(a2-6)Gal(b1-4)GlcNAc
# Procedure, shortened: as §1
# [46] = target: Neu5Gc(b2-6)Gal(b1-4)GlcNAc
# Procedure, shortened: as §1
binder,measurement,setting,value
"AAL (Agrocybe aegerita), Q6WY08 (protein) MQGVNIYNISAGTSVDLAAPVTTGDIVTFFSSALNLNAGAGNPNNTTLNLFAENGAYLLHIAFRLQENVIIFNSRQPDGPWLVEQRVSDVANQFAGIDGKAMVTVFDHGDKYQVVINEKTVIQYTKQISGLTLSLSYNATEETSIFSTVVEAVTYTGLALEHHHHHH",glycan array binding signal (z-score),[1],-0.136
same,glycan array binding signal (z-score),[2],-0.141
same,glycan array binding signal (z-score),[3],-0.148
same,glycan array binding signal (z-score),[4],-0.138
same,glycan array binding signal (z-score),[5],-0.114
same,glycan array binding signal (z-score),[6],-0.132
same,glycan array binding signal (z-score),[7],-0.138
same,glycan array binding signal (z-score),[8],-0.137
same,glycan array binding signal (z-score),[9],-0.141
same,glycan array binding signal (z-score),[10],-0.08
same,glycan array binding signal (z-score),[11],-0.162
same,glycan array binding signal (z-score),[12],-0.156
same,glycan array binding signal (z-score),[13],-0.129
same,glycan array binding signal (z-score),[14],-0.142
same,glycan array binding signal (z-score),[15],-0.142
same,glycan array binding signal (z-score),Neu5Ac(a2-6)GalNAc,-0.164
same,glycan array binding signal (z-score),[16],-0.166
same,glycan array binding signal (z-score),[17],-0.104
same,glycan array binding signal (z-score),[18],-0.154
same,glycan array binding signal (z-score),[19],-0.141
same,glycan array binding signal (z-score),Neu5Ac(a2-8)Neu5Ac,-0.146
same,glycan array binding signal (z-score),[20],0.357
same,glycan array binding signal (z-score),[21],-0.138
same,glycan array binding signal (z-score),[22],-0.095
same,glycan array binding signal (z-score),[23],0.029
same,glycan array binding signal (z-score),[24],-0.144
same,glycan array binding signal (z-score),[25],-0.108
same,glycan array binding signal (z-score),[26],-0.15
same,glycan array binding signal (z-score),[27],-0.143
same,glycan array binding signal (z-score),[28],-0.15
same,glycan array binding signal (z-score),[29],-0.147
same,glycan array binding signal (z-score),[30],-0.132
same,glycan array binding signal (z-score),[31],1.26
same,glycan array binding signal (z-score),[32],-0.154
same,glycan array binding signal (z-score),Neu5Ac(b2-6)GalNAc,-0.142
same,glycan array binding signal (z-score),[33],-0.156
same,glycan array binding signal (z-score),[34],-0.011
same,glycan array binding signal (z-score),[35],-0.157
same,glycan array binding signal (z-score),[36],-0.155
same,glycan array binding signal (z-score),[37],-0.157
same,glycan array binding signal (z-score),Neu5Gc(a2-3)Gal(b1-4)Glc,-0.106
same,glycan array binding signal (z-score),[38],-0.097
same,glycan array binding signal (z-score),[39],0.361
same,glycan array binding signal (z-score),[40],-0.151
same,glycan array binding signal (z-score),[41],-0.16
same,glycan array binding signal (z-score),Neu5Gc(a2-6)GalNAc,-0.124
same,glycan array binding signal (z-score),[42],-0.019
same,glycan array binding signal (z-score),[43],0.278
same,glycan array binding signal (z-score),[44],2.45
same,glycan array binding signal (z-score),[45],-0.145
same,glycan array binding signal (z-score),[46],-0.147
